# Publication PMC6919601, “Identification of Plasmodium dipeptidyl aminopeptidase allosteric inhibitors by high throughput screening” (PLoS ONE, 2019)
# The whole screen tested about 110,000 compounds, of which about 230 (0.21%) showed an effect of 50% or more. The list shows a part of the results.
# Target: DPAP1 (Plasmodium falciparum, UniProt Q8IIJ9)
# Assay: primary screen, percent inhibition; read by cleavage of a fluorogenic dipeptide substrate; higher = more effect of the substance
# Parameters: species or system P. falciparum D10 trophozoite lysates; single well
# 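Note: 30 min substrate incubation versus DMSO and 10 µM JCP410 controls.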
# Sequence of DPAP1 (Q8IIJ9 whole entry, looked up): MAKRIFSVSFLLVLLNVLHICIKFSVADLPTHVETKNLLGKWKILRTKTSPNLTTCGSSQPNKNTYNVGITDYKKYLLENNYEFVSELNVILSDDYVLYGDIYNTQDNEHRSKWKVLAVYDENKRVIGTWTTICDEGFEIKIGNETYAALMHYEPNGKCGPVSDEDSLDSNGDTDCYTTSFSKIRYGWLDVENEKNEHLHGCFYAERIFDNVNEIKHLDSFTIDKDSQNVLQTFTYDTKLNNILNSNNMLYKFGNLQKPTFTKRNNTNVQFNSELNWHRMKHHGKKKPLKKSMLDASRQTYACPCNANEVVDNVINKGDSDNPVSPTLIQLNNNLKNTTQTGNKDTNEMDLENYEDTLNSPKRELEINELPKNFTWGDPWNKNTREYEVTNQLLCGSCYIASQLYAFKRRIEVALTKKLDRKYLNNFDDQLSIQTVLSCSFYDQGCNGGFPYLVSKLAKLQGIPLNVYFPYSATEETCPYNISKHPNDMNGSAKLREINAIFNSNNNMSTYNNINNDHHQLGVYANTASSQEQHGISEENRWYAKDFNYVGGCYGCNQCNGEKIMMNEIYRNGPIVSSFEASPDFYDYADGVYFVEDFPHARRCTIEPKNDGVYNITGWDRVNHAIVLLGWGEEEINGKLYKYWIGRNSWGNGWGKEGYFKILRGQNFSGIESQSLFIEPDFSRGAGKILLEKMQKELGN
row,Compound,% Inhibition @ 10 uM [%]
1,CC1=NN(c2nc3ccccc3nc2Cl)C(=O)C1,-6.58
2,CS(=O)(=O)c1ccc2nc(NC(=O)Nc3ccccc3)sc2c1,-8.3
3,Cc1cc(C)c(-c2cc(C(F)(F)F)no2)c(O)n1,4.96
4,COc1ccc(CC(C)N(C)Cc2cccc3ccccc23)cc1 (stereo not shown),3.48
5,c1cncc(-c2nnc3n2C2(CCCCC2)Cc2ccccc2-3)c1,-2.91
6,Fc1ccccc1-c1nnc(-c2ccc3c(c2)OCO3)o1,1.29
7,COc1ccccc1NC(=O)c1cc(F)c(Cl)nc1Cl,-6.66
8,Cc1nn(Cc2ccccc2)c(C)c1C(=O)NS(=O)(=O)c1ccccc1Cl,-5.51
9,COc1ccc(/C=C\c2onc(C)c2S(=O)(=O)N2CCC(C(=O)N3CCOCC3)CC2)cc1,2.14
10,Cc1ccsc1/C=C1\N=C(c2cccc(Br)c2)OC1=O,-5.41
11,Cc1cc2c(c(=O)n1Cc1ccc3c(c1)OCO3)C(c1cccs1)C(C#N)=C(N)O2 (stereo not shown),-2.91
12,NC(=O)c1nn2c(C(F)(F)F)cc(-c3ccccc3)nc2c1Br,1.87
13,Cc1ccccc1Cn1c(Cl)nc2c1c(=O)n(C)c(=O)n2C,1.78
14,NC(=O)c1c(NC(=O)C2CC=CCC2C(=O)O)sc2c1CCC2 (stereo not shown),-4.01
15,COc1ccc(CCNC(=O)c2cc3c(Cl)ccc4c3n2CCO4)cc1OC,3.8
16,COc1ccc(-c2nc(CSCC(=O)NCc3cccnc3)c(C)o2)cc1,3.99
17,O=c1c(=O)n(Cc2cccc(Cl)c2)ccn1Cc1ccccc1,1.79
18,Cc1cccc(NCc2ccc(O)c3ncccc23)n1,-8.28
19,Nc1c(C(=O)c2ccccc2)oc2ccc(Cl)cc12,0.503
20,O=C(c1cnn2c1NC(c1ccccc1)CC2C(F)F)N1N=C(C(F)F)CC1(O)C(F)F (stereo not shown),-3.18
21,O=C(Nc1ccc(N2C(=O)C3CC=CCC3C2=O)cc1)c1ccccc1 (stereo not shown),3.75
22,CCc1cc2c(cc3c(=O)n(CC(=O)NC(C)c4ccccc4)nc(CC)n32)s1 (stereo not shown),7.81
23,CC(C)(C)N1CC(C(=O)O)CC1=O (stereo not shown),0.0289
24,CN1CCN(CCNC(=O)c2cnn(-c3ccc(F)cc3)c2-n2cccc2)CC1,-5.37
25,Cc1ccc(NC(=O)C2CC(=O)N(c3ccc(F)cc3)C2)c(C)c1 (stereo not shown),0.147
26,CCN(CC)S(=O)(=O)c1ccc(NC(=O)c2ccc(OC)cc2)cc1,-0.992
27,COc1cc(NC(=O)c2cc(OC)c(OC)c(OC)c2)c(OC)cc1Cl,-10.7
28,COC(=O)c1cn(C(=O)COc2ccc(C)cc2Br)c2ccccc12,2.56
